Data reported in publication PMC6400076 (Frontiers in Microbiology, 2019).

Target: T1, SpGAPDH (Streptococcus pyogenes, UniProt P68777)
T1 construct: gene gap
Test: X-ray crystal structure, […] Å
Settings: holoenzyme, NAD+ in active site of each protomer

T1 sequence (P68777 whole entry): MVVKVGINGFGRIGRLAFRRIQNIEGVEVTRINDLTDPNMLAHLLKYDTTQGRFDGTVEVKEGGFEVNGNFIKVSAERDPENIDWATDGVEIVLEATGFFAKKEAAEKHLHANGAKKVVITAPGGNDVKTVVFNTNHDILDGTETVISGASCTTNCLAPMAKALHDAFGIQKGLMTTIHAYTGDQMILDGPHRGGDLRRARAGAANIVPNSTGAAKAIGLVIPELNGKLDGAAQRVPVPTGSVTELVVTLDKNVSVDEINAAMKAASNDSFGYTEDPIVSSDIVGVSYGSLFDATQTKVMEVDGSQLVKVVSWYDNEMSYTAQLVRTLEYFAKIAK

Compound: NC(=O)c1ccc[n+]([C@@H]2O[C@H](COP(=O)(O)OP(=O)(O)OC[C@H]3O[C@@H](n4cnc5c(N)ncnc54)[C@H](O)[C@@H]3O)[C@@H](O)[C@H]2O)c1 [NAD+]
- X-ray crystal structure, 1.50 Å: Both crystal structures correspond to the holoenzymes with the NAD+ cofactor deeply buried
